# In all, about 33,000 sequences were measured (“E-score (-0.5 to 0.5)”: median about -0.041, highest 2% from about 0.37 on). The list shows a part of the results.
# Biological target: T1, Ecm22 (UniProt Q05958)
# T1 sequence: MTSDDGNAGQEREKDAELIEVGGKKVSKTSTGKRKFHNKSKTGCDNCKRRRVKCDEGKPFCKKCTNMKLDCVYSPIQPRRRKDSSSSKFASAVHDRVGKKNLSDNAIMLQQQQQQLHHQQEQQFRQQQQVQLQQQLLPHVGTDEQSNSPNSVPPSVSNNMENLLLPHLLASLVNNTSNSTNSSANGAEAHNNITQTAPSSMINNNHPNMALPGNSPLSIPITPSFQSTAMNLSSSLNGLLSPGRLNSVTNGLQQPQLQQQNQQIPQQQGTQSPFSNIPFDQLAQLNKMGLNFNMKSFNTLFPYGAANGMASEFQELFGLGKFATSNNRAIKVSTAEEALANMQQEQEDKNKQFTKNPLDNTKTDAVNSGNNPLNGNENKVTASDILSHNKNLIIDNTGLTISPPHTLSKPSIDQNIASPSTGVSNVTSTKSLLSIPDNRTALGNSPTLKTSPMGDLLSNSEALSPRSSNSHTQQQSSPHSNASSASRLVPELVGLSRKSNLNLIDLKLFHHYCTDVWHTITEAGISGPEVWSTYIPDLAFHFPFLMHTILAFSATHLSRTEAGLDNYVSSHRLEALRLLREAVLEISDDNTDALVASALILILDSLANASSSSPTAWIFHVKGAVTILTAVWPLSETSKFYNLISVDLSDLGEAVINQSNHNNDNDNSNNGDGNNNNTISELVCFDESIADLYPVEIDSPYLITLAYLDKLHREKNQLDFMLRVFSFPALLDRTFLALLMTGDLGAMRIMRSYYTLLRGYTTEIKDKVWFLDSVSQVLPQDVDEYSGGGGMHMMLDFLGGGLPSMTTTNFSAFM
# Assay: PBM E-score (8-mer binding enrichment) (E-score (-0.5 to 0.5)); higher = stronger / more preferred TF binding; most listed sequences are background and not binding sites
# Details: protein concentration: 200 nM; construct: GST-full length
# Procedure, shortened: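 Using PURExpress in vitro transcription/translation, GST-tagged yeast transcription factors were made in full-length or DNA-binding-domain form. These were applied at about 100-200 nM to double-stranded universal all-10-mer Agilent arrays, and bound protein was detected with fluorescent anti-GST. Scans were normalised with masliner before the Universal PBM Analysis Suite assigned E-scores to ungapped eight-base words pooled with their reverse complements.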
row,Sequence,PBM E-score
1,AACGGCGA,0.381
2,GGGCATCA,-0.311
3,TAGTTCCA,-0.0504
4,CACTGGGA,-0.188
5,AATATCTG,-0.164
6,AGGGGGGA,-0.0969
7,AATGGTGC,-0.0155
8,ATTCTTCA,0.0132
9,ATTTAACG,0.361
10,AATGTTGG,-0.102
11,GAAACCGC,0.0271
12,AAGGGCCT,-0.278
13,CGTAGCCC,0.25
14,GCACTACA,-0.0693
15,ATCGATTA,0.16
16,CCAATGCC,-0.246
17,ACGTATCT,0.088
18,ACTCCTAG,-0.304
19,ATGACACC,-0.179
20,TCGGAACA,0.215
21,GGGGCTGA,-0.0923
22,GAGCGTCC,0.0848
23,AATGGACG,-0.0367
24,AGAGTCGC,0.159
25,GAAACTCC,-0.164

row,Sequence,PBM E-score
1,CTTTTATC,-0.0345
2,CTTGTCCC,-0.0987
3,ATTTCGAA,0.111
4,GGTGAAAC,0.132
5,ACATGACC,-0.035
6,GTACGAGA,0.482
7,TCAGATCA,-0.33
8,AGTAAGAC,-0.0383
9,ACGCAGAG,0.0359
10,GGTTAAGA,-0.0289
11,CAGGCGAC,-0.236
12,AGTGTGGG,-0.217
13,AATGCTAA,-0.0939
14,AGCAAAGG,-0.0124
15,GGCGATTA,0.0187
16,GGCAGATA,0.00792
17,CCCACCGA,0.027
18,CTATCTGA,-0.0516
19,GCCGTCGC,0.229
20,ACGCTTTA,0.142
21,TAATCTGA,-0.217
22,CAGGTCAC,-0.351
23,CGATTTCC,0.15
24,ATGTGCTA,-0.065
25,AACTTGAG,-0.169

row,Sequence,PBM E-score
1,AGTAACTC,0.0824
2,GTCCCACA,-0.158
3,CATCCACA,-0.215
4,CGACCATC,0.212
5,ATCACGAT,0.0567
6,GTAGTACA,0.0286
7,GGACAGGA,-0.111
8,ACGCTAAG,-0.0825
9,GTGTGAAA,-0.07
10,ATCGAAGG,-0.0211
11,GGTATGAA,-0.0181
12,GGGTTGCA,-0.189
13,AAGATTGC,-0.141
14,CTGCGTGA,-0.162
15,CGGTATTC,0.0418
16,AAAGTTAT,0.0679
17,CCAGATAG,-0.186
18,ATGGAGAC,0.0828
19,ATTATATC,0.0802
20,GAGCCCAA,-0.109
21,CTCGAGTC,-0.141
22,CATGCACC,-0.139
23,GGTTAGAA,-0.0363
24,TACTAGAA,-0.0752
25,ATCTCGTA,0.466

row,Sequence,PBM E-score
1,AACGGAGT,0.197
2,ACGTAAGC,0.0655
3,GCTAGCTA,-0.106
4,CGAGGTGC,0.238
5,GTTGCGTA,0.222
6,CGAAATAC,0.251
7,AAGCTATA,-0.0214
8,GGCTCTAA,-0.0806
9,AGCAAATA,-0.0689
10,CAAGGGTC,-0.271
11,CCCGCTTA,0.2
12,GCAGCTCC,-0.129
13,AGGTCAAG,-0.346
14,CGTAACGC,0.329
15,CAGCCATG,-0.0775
16,CGTGCATA,-0.121
17,TTAGATAA,-0.0703
18,TCGGACAA,0.205
19,ATGGTCCA,-0.203
20,GACATCGC,0.0836
21,ATAAGGTG,-0.0576
22,CCCCATCC,0.0357
23,CACAAAAC,0.0438
24,GAATTATC,0.143
25,CTCGTATC,0.478

row,Sequence,PBM E-score
1,AATCACGA,0.137
2,CAACAGTC,-0.32
3,CGGTTTCC,0.0462
4,CCCTAGGA,-0.223
5,AGGTACAT,0.0134
6,TCTGTCAA,-0.101
7,ATGTCCGC,0.0595
8,CTGTCTGA,-0.206
9,CAATAACA,-0.16
10,CCAAGGAC,-0.302
11,CAAGCTGC,-0.191
12,AGTGCTAC,-0.0395
13,AGAATTGC,-0.0838
14,TGAGCAAA,-0.0534
15,TCGATCAA,0.0228
16,AGAACGCA,0.0964
17,CAATATAC,0.271
18,CTCGCGTC,0.255
19,CCGGCGTC,-0.111
20,ACCGCATA,0.0853
21,AGTTGACA,-0.0923
22,ACACCGAT,-0.0233
23,GCTCATCA,-0.207
24,CCTACATC,-0.158
25,ACAGACAC,-0.0505

row,Sequence,PBM E-score
1,GCCATCCC,-0.216
2,CGTGCTTA,-0.0539
3,ACTATTCT,-0.046
4,GCCGGCCA,-0.194
5,ACTCAACC,-0.0151
6,AATTCCGG,-0.146
7,AGTCAGTC,-0.215
8,GAGCTAAC,-0.0583
9,ACCCCAAT,-0.183
10,CGATGCCG,-0.022
11,CCCATCCA,-0.0635
12,CAAAGCAA,0.0515
13,CGAGCGGC,0.129
14,ATAATTTC,-0.128
15,GCTCCTCA,-0.0874
16,AGTCAGTA,0.0758
17,GCCAAACC,-0.169
18,GTGAGACA,-0.198
19,ATCCTATC,-0.176
20,AGTCCTTC,-0.189
21,ATAGGAAA,-0.0768
22,CCGAAGAA,-0.0228
23,ACGAACCC,0.28
24,TATACTCA,0.163
25,TGAGACCA,-0.22

row,Sequence,PBM E-score
1,ATCTGTTG,-0.132
2,GCGCTATA,0.0306
3,AGCTGCGG,-0.00448
4,CACGTTAA,0.00208
5,ACAGATCG,0.0553
6,AAGCCTAG,-0.114
7,CTGCACGC,-0.199
8,AAAGCTCA,-0.106
9,AGACAATC,-0.0209
10,AGTCCCGG,-0.149
11,CTTAACAA,-0.0675
12,GAAACCCA,-0.0172
13,GCGCTCAC,0.0474
14,ACAATGGG,-0.108
15,CGTCTGTA,0.0138
16,AGTATAAA,0.241
17,GAGCGGGC,-0.0404
18,ATGGGCAC,-0.0719
19,AGGATGAA,-0.0912
20,CTAGGACC,-0.182
21,AGTAGAGA,-0.05
22,CCCGCGTA,0.0524
